# Reference: the supplement of paper PMC8728848
# This is one part of the list.
# B1: SP16663B-bot-321-25-321 (Bacteroides ovatus) (protein)
# chain: DDDDEVTMNSKFYLSTKVFPVDSYEASLSVILKDNSVVVNELQPNYRFVACATERLSKDVKITADSDDNLVSAYNKANDTEYNILPAENYSFTNKTVTIENGESVSGDSIKIELLNVGSLTTEGGYLLPVTISSIEGNNLDALSSNRGVVYLKIQNIHVNVESGQPAEGTLIADRSGWTVKVAPTTRGDAKNLIDGTNSDVARDGGAEYWLTVDIGKVQTLTGIRNKCYASSYSPTAVEVFTSSDGAKWKSIGAVTISKSGTQYIKFSKAVETRYLKYYVKQGPNTVSLTEFDLYAK
# Assays:
# Assay in all cases: glycan array binding signal (z-score within array); higher = stronger binding
# Settings in all cases: glycan notation: IUPAC condensed, linker removed
# [1] = target: Fuc(a1-2)[GalNAc(a1-3)]Gal(b1-3)GlcNAc(b1-6)GalNAc
# Procedure, shortened: (§1)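 From the Consortium for Functional Glycomics database, 3228 arrays were curated, keeping only those whose protein sequence was available. Binding is given as a within-array Z-score averaged across arrays sharing a protein sequence and across linkers. Negative Z-scores can be read as non-binding.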
# [2] = target: Fuc(a1-2)[GalNAc(a1-3)]Gal(b1-4)Glc
# Procedure, shortened: as §1
# [3] = target: Fuc(a1-2)[GalNAc(a1-3)]Gal(b1-4)GlcNAc
# Procedure, shortened: as §1
# [4] = target: Fuc(a1-2)[GalNAc(a1-3)]Gal(b1-4)GlcNAc(b1-2)Man
# Procedure, shortened: as §1
# [5] = target: Fuc(a1-2)[GalNAc(a1-3)]Gal(b1-4)GlcNAc(b1-2)Man(a1-3)[Fuc(a1-2)[GalNAc(a1-3)]Gal(b1-4)GlcNAc(b1-2)Man(a1-6)]Man(b1-4)GlcNAc(b1-4)GlcNAc
# Procedure, shortened: as §1
# [6] = target: Fuc(a1-2)[GalNAc(a1-3)]Gal(b1-4)GlcNAc(b1-2)Man(a1-3)[Fuc(a1-2)[GalNAc(a1-3)]Gal(b1-4)GlcNAc(b1-2)Man(a1-6)]Man(b1-4)GlcNAc(b1-4)[Fuc(a1-6)]GlcNAc
# Procedure, shortened: as §1
# [7] = target: Fuc(a1-2)[GalNAc(a1-3)]Gal(b1-4)GlcNAc(b1-3)Gal(b1-4)GlcNAc
# Procedure, shortened: as §1
# [8] = target: Fuc(a1-2)[GalNAc(a1-3)]Gal(b1-4)GlcNAc(b1-3)Gal(b1-4)GlcNAc(b1-3)Gal(b1-4)GlcNAc
# Procedure, shortened: as §1
# [9] = target: Fuc(a1-2)[GalNAc(a1-3)]Gal(b1-4)GlcNAc(b1-3)GalNAc
# Procedure, shortened: as §1
# [10] = target: Fuc(a1-2)[GalNAc(a1-3)]Gal(b1-4)GlcNAc(b1-3)[Fuc(a1-2)[GalNAc(a1-3)]Gal(b1-4)GlcNAc(b1-6)]GalNAc
# Procedure, shortened: as §1
# [11] = target: Fuc(a1-2)[GalNAc(a1-3)]Gal(b1-4)GlcNAc(b1-6)GalNAc
# Procedure, shortened: as §1
# [12] = target: Fuc(a1-2)[GalNAc(a1-3)]Gal(b1-4)[Fuc(a1-3)]GlcNAc
# Procedure, shortened: as §1
# [13] = target: Fuc(a1-2)[GalNAc(a1-3)]Gal(b1-4)[Fuc(a1-3)]GlcNAc(b1-3)GalNAc
# Procedure, shortened: as §1
# [14] = target: Fuc(a1-2)[GalNAc(a1-4)]Gal(b1-4)GlcNAc
# Procedure, shortened: as §1
# [15] = target: Fuc(a1-2)[GalNAc(b1-3)]Gal
# Procedure, shortened: as §1
# Fuc(a1-3)GlcNAc = target: Fuc(a1-3)GlcNAc
# Procedure, shortened: as §1
# [16] = target: Fuc(a1-3)[Gal(b1-4)]Glc6S
# Procedure, shortened: as §1
# [17] = target: Fuc(a1-3)[Gal(b1-4)]GlcNAc
# Procedure, shortened: as §1
# [18] = target: Fuc(a1-3)[Gal(b1-4)]GlcNAc(b1-2)Man
# Procedure, shortened: as §1
# [19] = target: Fuc(a1-3)[Gal(b1-4)]GlcNAc(b1-2)Man(a1-3)[Fuc(a1-3)[Gal(b1-4)]GlcNAc(b1-2)Man(a1-6)]Man(b1-4)GlcNAc(b1-4)GlcNAc
# Procedure, shortened: as §1
# [20] = target: Fuc(a1-3)[Gal(b1-4)]GlcNAc(b1-2)Man(a1-3)[Fuc(a1-3)[Gal(b1-4)]GlcNAc(b1-2)Man(a1-6)]Man(b1-4)GlcNAc(b1-4)[Fuc(a1-6)]GlcNAc
# Procedure, shortened: as §1
# [21] = target: Fuc(a1-3)[Gal(b1-4)]GlcNAc(b1-3)Gal(b1-3)[Fuc(a1-4)]GlcNAc
# Procedure, shortened: as §1
# [22] = target: Fuc(a1-3)[Gal(b1-4)]GlcNAc(b1-3)Gal(b1-4)[Fuc(a1-3)]GlcNAc
# Procedure, shortened: as §1
# [23] = target: Fuc(a1-3)[Gal(b1-4)]GlcNAc(b1-3)Gal(b1-4)[Fuc(a1-3)]GlcNAc(b1-3)Gal(b1-4)[Fuc(a1-3)]GlcNAc
# Procedure, shortened: as §1
# [24] = target: Fuc(a1-3)[Gal(b1-4)]GlcNAc(b1-3)GalNAc
# Procedure, shortened: as §1
# [25] = target: Fuc(a1-3)[Gal(b1-4)]GlcNAc(b1-6)GalNAc
# Procedure, shortened: as §1
# [26] = target: Fuc(a1-3)[Gal(b1-4)]GlcNAc(b1-6)[Gal(b1-3)GlcNAc(b1-3)]Gal(b1-4)Glc
# Procedure, shortened: as §1
# [27] = target: Fuc(a1-3)[Gal(b1-4)]GlcNAc6S
# Procedure, shortened: as §1
# [28] = target: Fuc(a1-3)[Gal3S(b1-4)]Glc
# Procedure, shortened: as §1
# [29] = target: Fuc(a1-3)[Gal3S(b1-4)]GlcNAc
# Procedure, shortened: as §1
# [30] = target: Fuc(a1-3)[Gal3S(b1-4)]GlcNAc6S
# Procedure, shortened: as §1
# [31] = target: Fuc(a1-3)[GalNAc(b1-4)]GlcNAc
# Procedure, shortened: as §1
# [32] = target: Fuc(a1-3)[GalNAc(b1-4)]GlcNAc6S
# Procedure, shortened: as §1
# Fuc(a1-4)GlcNAc = target: Fuc(a1-4)GlcNAc
# Procedure, shortened: as §1
# Fuc(b1-3)GlcNAc = target: Fuc(b1-3)GlcNAc
# Procedure, shortened: as §1
# Gal(a1-2)Gal = target: Gal(a1-2)Gal
# Procedure, shortened: as §1
# Gal(a1-3)Gal = target: Gal(a1-3)Gal
# Procedure, shortened: as §1
binder,measurement,setting,value
B1,glycan array binding signal (z-score),[1],-0.524
same,glycan array binding signal (z-score),[2],-0.114
same,glycan array binding signal (z-score),[3],-0.642
same,glycan array binding signal (z-score),[4],1.04
same,glycan array binding signal (z-score),[5],-0.25
same,glycan array binding signal (z-score),[6],-0.437
same,glycan array binding signal (z-score),[7],-0.377
same,glycan array binding signal (z-score),[8],0.462
same,glycan array binding signal (z-score),[9],-0.199
same,glycan array binding signal (z-score),[10],-0.651
same,glycan array binding signal (z-score),[11],-0.098
same,glycan array binding signal (z-score),[12],-0.437
same,glycan array binding signal (z-score),[13],0.604
same,glycan array binding signal (z-score),[14],-0.418
same,glycan array binding signal (z-score),[15],0.342
same,glycan array binding signal (z-score),Fuc(a1-3)GlcNAc,0.093
same,glycan array binding signal (z-score),[16],1.36
same,glycan array binding signal (z-score),[17],0.012
same,glycan array binding signal (z-score),[18],0.558
same,glycan array binding signal (z-score),[19],-0.239
same,glycan array binding signal (z-score),[20],-0.08
same,glycan array binding signal (z-score),[21],-0.444
same,glycan array binding signal (z-score),[22],-0.452
same,glycan array binding signal (z-score),[23],-0.369
same,glycan array binding signal (z-score),[24],-0.169
same,glycan array binding signal (z-score),[25],0.145
same,glycan array binding signal (z-score),[26],-0.297
same,glycan array binding signal (z-score),[27],0.854
same,glycan array binding signal (z-score),[28],-0.298
same,glycan array binding signal (z-score),[29],0.603
same,glycan array binding signal (z-score),[30],-0.468
same,glycan array binding signal (z-score),[31],0.867
same,glycan array binding signal (z-score),[32],0.084
same,glycan array binding signal (z-score),Fuc(a1-4)GlcNAc,21.5
same,glycan array binding signal (z-score),Fuc(b1-3)GlcNAc,0.24
same,glycan array binding signal (z-score),Gal(a1-2)Gal,0.593
same,glycan array binding signal (z-score),Gal(a1-3)Gal,0.418
